{"source": "paper PMC4336329", "about": "(PLoS ONE, 2015)", "note": "Hit rate of the full screen: of about 310,000 compounds, about 2,200 (0.71%) showed an effect of 50% or more. The effect is printed as a negative number. The list shows a part of the results."}
{"molecular_target": "human ether-à-go-go-related gene (hERG) potassium channel (human, UniProt Q12809)", "sequence (Q12809 whole entry, looked up)": "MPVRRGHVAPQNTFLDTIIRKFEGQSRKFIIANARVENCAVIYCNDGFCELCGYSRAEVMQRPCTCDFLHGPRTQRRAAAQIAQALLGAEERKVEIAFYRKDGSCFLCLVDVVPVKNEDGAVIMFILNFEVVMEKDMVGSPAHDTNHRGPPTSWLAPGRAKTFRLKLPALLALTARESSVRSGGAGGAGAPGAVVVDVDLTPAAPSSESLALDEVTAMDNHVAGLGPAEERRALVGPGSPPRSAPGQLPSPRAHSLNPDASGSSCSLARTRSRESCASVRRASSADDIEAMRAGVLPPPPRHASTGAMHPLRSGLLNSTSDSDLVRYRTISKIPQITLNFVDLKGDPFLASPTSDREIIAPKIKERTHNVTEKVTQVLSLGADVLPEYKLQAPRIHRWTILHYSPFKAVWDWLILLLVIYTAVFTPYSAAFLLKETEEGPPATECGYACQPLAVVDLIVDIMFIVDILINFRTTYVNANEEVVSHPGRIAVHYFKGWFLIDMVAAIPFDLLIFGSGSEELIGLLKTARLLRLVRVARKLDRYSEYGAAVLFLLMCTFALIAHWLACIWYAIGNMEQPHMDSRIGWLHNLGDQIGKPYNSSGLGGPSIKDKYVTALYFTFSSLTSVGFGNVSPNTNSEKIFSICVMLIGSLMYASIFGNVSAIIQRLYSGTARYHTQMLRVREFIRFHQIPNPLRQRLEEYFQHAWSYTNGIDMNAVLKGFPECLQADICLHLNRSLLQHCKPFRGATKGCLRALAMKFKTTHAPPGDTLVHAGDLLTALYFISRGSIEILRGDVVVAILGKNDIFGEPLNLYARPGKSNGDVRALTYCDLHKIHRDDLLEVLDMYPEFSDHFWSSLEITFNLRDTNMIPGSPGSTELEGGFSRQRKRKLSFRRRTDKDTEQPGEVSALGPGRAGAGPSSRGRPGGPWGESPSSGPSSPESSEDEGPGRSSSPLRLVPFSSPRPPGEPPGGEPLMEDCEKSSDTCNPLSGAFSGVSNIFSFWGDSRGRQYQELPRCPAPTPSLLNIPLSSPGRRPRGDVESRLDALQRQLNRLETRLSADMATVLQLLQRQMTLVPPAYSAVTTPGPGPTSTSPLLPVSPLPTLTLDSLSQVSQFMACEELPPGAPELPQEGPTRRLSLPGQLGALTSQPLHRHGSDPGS", "assay": "primary screen, population patch clamp on CHO cells stably expressing hERG", "units": {"hERG current change (%, negative = inhibition) at 1uM": "%"}}
{"compound": "CSC1=N/C(=C\\c2ccc3c(c2)OCO3)C(=O)S1", "hERG current change (%, negative = inhibition) at 1uM": 8.48}
{"compound": "CCC/C(O)=C1\\C(=O)CC(c2ccccc2)CC1=NC(C)C(=O)O", "note": "(centres unmarked)", "hERG current change (%, negative = inhibition) at 1uM": 16.9}
{"compound": "CC(C)(NS(=O)(=O)OCC(Cl)(Cl)Cl)c1ccccc1", "hERG current change (%, negative = inhibition) at 1uM": 4.67}
{"compound": "COC(=O)C1=C(C)N(CCc2cc(OC)c(OC)c(OC)c2)C(=O)N[C@H]1c1ccc(Br)cc1", "hERG current change (%, negative = inhibition) at 1uM": -0.0799}
{"compound": "COc1ccc(N2C(=O)/C(=C/c3cccnc3)NC2=S)cc1", "hERG current change (%, negative = inhibition) at 1uM": 5.95}
{"compound": "COc1cc(C(=O)NNC(=O)c2cccn2C)cc(OC)c1OC", "hERG current change (%, negative = inhibition) at 1uM": 1.09}
{"compound": "CC1CN(S(=O)(=O)c2ccc(C(=O)Nc3nc(-c4cc5ccccc5o4)cs3)cc2)CC(C)O1", "note": "(centres unmarked)", "hERG current change (%, negative = inhibition) at 1uM": 10.2}
{"compound": "Cc1ccccc1OCCOC(=O)c1ccc(S(=O)(=O)N2CCCC2)cc1", "hERG current change (%, negative = inhibition) at 1uM": 12}
{"compound": "COc1ccc(CN2CCC(=O)NC2=O)cc1", "hERG current change (%, negative = inhibition) at 1uM": 9.39}
{"compound": "Cc1ccc(C(=O)Nc2ccccc2N2CCCC2)cc1", "hERG current change (%, negative = inhibition) at 1uM": 10.5}
{"compound": "O=S(=O)(NCc1ccco1)c1ccc(Cl)cc1Cl", "hERG current change (%, negative = inhibition) at 1uM": 14.8}
{"compound": "COc1cc(OC)c2c(C)cc(=O)oc2c1", "hERG current change (%, negative = inhibition) at 1uM": 14.8}
{"compound": "CCOc1cc(NC(=S)NCCCOC)c(OCC)cc1NC(=O)c1cccs1", "hERG current change (%, negative = inhibition) at 1uM": 10.7}
{"compound": "Cc1ccc(NC(=S)NC(CO)C(O)c2ccc([N+](=O)[O-])cc2)cc1", "note": "(centres unmarked)", "hERG current change (%, negative = inhibition) at 1uM": 6.48}
{"compound": "CCc1cc(=O)[nH]c(SCc2ccc(C)cc2)n1", "hERG current change (%, negative = inhibition) at 1uM": -2.05}
{"compound": "Cc1cc(C)cc(Cn2ncc(Cl)c(Cl)c2=O)c1", "hERG current change (%, negative = inhibition) at 1uM": 5.38}
{"compound": "COc1ccc(CNC(=O)C2CCN(C(=O)c3ccc(-c4ccccc4)cc3)CC2)cc1", "hERG current change (%, negative = inhibition) at 1uM": 8.39}
{"compound": "CCOc1[nH]n(-c2ccc(Cl)cc2)c(=O)c1C=Nc1ccc(OC)cc1", "hERG current change (%, negative = inhibition) at 1uM": 7.51}
{"compound": "COc1ccc(-n2c(C)cc(C=O)c2C)cc1Cl", "hERG current change (%, negative = inhibition) at 1uM": 5.55}
{"compound": "COc1ccc(S(=O)(=O)N2CCC(C(=O)N3CCC(C(N)=O)CC3)CC2)cc1Cl", "hERG current change (%, negative = inhibition) at 1uM": 12.5}
{"compound": "CCOC(=O)c1nn(-c2ccccc2)cc1O", "hERG current change (%, negative = inhibition) at 1uM": 15.4}
{"compound": "Oc1c(C(c2ccco2)N2CCN(C(c3ccccc3)c3ccccc3)CC2)sc2ncnn12", "note": "(centres unmarked)", "hERG current change (%, negative = inhibition) at 1uM": 6.31}
{"compound": "CN(C(=O)CN1C(=O)S/C(=C\\c2ccc(Cl)cc2)C1=O)C1CCS(=O)(=O)C1", "note": "(centres unmarked)", "hERG current change (%, negative = inhibition) at 1uM": 2.35}
{"compound": "Cc1ccc(-c2nc(-c3ccncc3)no2)cc1C", "hERG current change (%, negative = inhibition) at 1uM": 12.6}
{"compound": "CC1=C(C#N)C(c2ccccc2)C2=C(N1)c1ccccc1C2=O", "note": "(centres unmarked)", "hERG current change (%, negative = inhibition) at 1uM": 8.87}
{"compound": "C/C(Nc1cccc(F)c1)=C(/C#N)C(N)=O", "hERG current change (%, negative = inhibition) at 1uM": 11.5}
{"compound": "Cc1nc2cc(S(=O)(=O)C(F)(F)F)ccc2s1", "hERG current change (%, negative = inhibition) at 1uM": 3.22}
{"compound": "Cc1ccccc1OCc1nnc(SCC(=O)Nc2c(C)n(C)n(-c3ccccc3)c2=O)n1-c1ccccc1", "hERG current change (%, negative = inhibition) at 1uM": 1.33}
{"compound": "CCO[C@H]1OC(C(=O)N2CCOCC2)=C[C@@H](c2ccc3c(c2)OCO3)[C@@H]1CCCO", "hERG current change (%, negative = inhibition) at 1uM": 12}
{"compound": "COC(CNC(=O)CNC(=S)N(Cc1ccccc1)Cc1cccnc1)OC", "hERG current change (%, negative = inhibition) at 1uM": -2.33}
{"compound": "O=C(NNc1c2ccccc2nc2ccccc12)c1ccc(O)cc1O", "hERG current change (%, negative = inhibition) at 1uM": 14.4}
{"compound": "CC(OC(=O)C1CCCC1)C(=O)Nc1ncc(Cl)cc1Cl", "note": "(centres unmarked)", "hERG current change (%, negative = inhibition) at 1uM": 11.4}
{"compound": "Cc1cccc(NC(=O)CNC(=O)Cc2ccc3c(c2)OCCO3)c1C", "hERG current change (%, negative = inhibition) at 1uM": 13.5}
{"compound": "CCN1CCN(C(=O)Cc2ccccc2OC)CC1", "hERG current change (%, negative = inhibition) at 1uM": 11.9}
{"compound": "CCOC(=O)/C(C#N)=C1/C=CN(c2ccc(C)cc2)C=N1", "hERG current change (%, negative = inhibition) at 1uM": -0.432}
{"compound": "COc1ccccc1N(CC(=O)NCC1CCCO1)C(=O)Cn1nnc(-c2cccs2)n1", "note": "(centres unmarked)", "hERG current change (%, negative = inhibition) at 1uM": 7.73}
{"compound": "COc1ccc(C)cc1NC(=O)CN1CCN(c2ccccn2)CC1", "hERG current change (%, negative = inhibition) at 1uM": 5.33}
{"compound": "Cc1[nH]c(C)c(S(=O)(=O)NCCc2ccccc2)c1C(=O)N1CCCC1", "hERG current change (%, negative = inhibition) at 1uM": 14.8}
{"compound": "CCc1cc2c(=O)c(Oc3ccccc3)c(C)oc2cc1O", "hERG current change (%, negative = inhibition) at 1uM": -19.4}
{"compound": "O=C(CCN=C1NS(=O)(=O)c2ccccc21)OCc1cccc(Cl)c1", "hERG current change (%, negative = inhibition) at 1uM": 11.1}
{"compound": "Cc1ccc(N(Cc2ccc(C(=O)Nc3c(C)n(C)n(-c4ccccc4)c3=O)cc2)S(C)(=O)=O)cc1C", "hERG current change (%, negative = inhibition) at 1uM": 8.53}
{"compound": "CCc1ccc(C2CC(c3cccc(OC)c3)n3nc(N)nc3N2)cc1", "note": "(centres unmarked)", "hERG current change (%, negative = inhibition) at 1uM": 4.1}
{"compound": "COC(=O)c1cn(CCOc2ccccc2OC)c2ccccc12", "hERG current change (%, negative = inhibition) at 1uM": 13.4}
{"compound": "COc1cc(OC)cc(C(=O)Nc2cccc3cccnc23)c1", "hERG current change (%, negative = inhibition) at 1uM": 19.3}
